# In the supplement of paper PMC3334620:
# In all, about 33,000 sequences were measured (“E-score (-0.5 to 0.5)”: median about -0.036, highest 2% from about 0.37 on). The list shows a part of the results.
# Target: T1, Yer064c (UniProt P40041)
# T1 sequence: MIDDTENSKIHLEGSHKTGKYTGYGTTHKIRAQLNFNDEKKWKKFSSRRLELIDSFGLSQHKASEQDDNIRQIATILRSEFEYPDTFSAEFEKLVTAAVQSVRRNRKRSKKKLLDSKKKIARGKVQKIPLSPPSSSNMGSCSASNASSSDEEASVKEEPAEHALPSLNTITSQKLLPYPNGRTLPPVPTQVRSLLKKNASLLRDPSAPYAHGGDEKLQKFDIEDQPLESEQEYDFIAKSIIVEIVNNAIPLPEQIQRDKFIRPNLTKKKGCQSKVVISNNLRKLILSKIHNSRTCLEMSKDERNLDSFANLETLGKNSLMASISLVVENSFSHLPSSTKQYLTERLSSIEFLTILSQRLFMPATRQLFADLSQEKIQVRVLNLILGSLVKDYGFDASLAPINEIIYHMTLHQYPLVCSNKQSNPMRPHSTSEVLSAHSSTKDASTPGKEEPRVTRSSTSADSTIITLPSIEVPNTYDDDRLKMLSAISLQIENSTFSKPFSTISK
# Assay: PBM E-score (8-mer binding enrichment) (E-score (-0.5 to 0.5)); higher = stronger / more preferred TF binding; most listed sequences are background and not binding sites
# Details: protein concentration: 200 nM; construct: GST-full length
# Outline: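 Each ungapped eight-base word and its reverse complement, pooled, received an E-score from the Universal PBM Analysis Suite. Underlying scans, normalised with masliner, recorded fluorescent anti-GST bound to GST-tagged yeast transcription factors. These were applied at about 100-200 nM to universal all-10-mer Agilent arrays double-stranded by primer extension.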
row,Sequence,PBM E-score
1,CATTGGCA,0.0966
2,GGCCAAAC,-0.168
3,CACATCGA,-0.0301
4,AAGAACAT,-0.124
5,CAAAGTTG,0.0753
6,GTCCGAGA,0.0792
7,AAGGGGAT,-0.204
8,ATATTCGC,-0.075
9,AATAGTCG,0.346
10,GCGAGCCC,-0.21
11,CGGTAACA,0.0284
12,CCTAGATA,-0.154
13,GCCCGTGA,-0.0227
14,AGAGCCAC,0.0176
15,AAGCACTT,-0.04
16,AAGAGGCG,-0.082
17,CTGTAGGA,0.0347
18,CGTGACCA,-0.00231
19,GCCTAGCC,-0.215
20,AGCTCATA,0.151
21,AGCATTGA,0.0639
22,TTCGTAAA,-0.00227
23,AGGGAGCA,-0.173
24,ACACAACT,0.0203

row,Sequence,PBM E-score
1,AGTGCGCG,-0.269
2,GTGATCAA,0.215
3,ATGTTACC,-0.172
4,CTAATGAG,0.0791
5,ATAGCACG,-0.317
6,CCGCACGA,0.147
7,AAGGTATT,-0.0253
8,CCCATGAC,0.255
9,CAATAGTC,0.409
10,AAAACGTT,0.0497
11,ACCGGATA,0.0766
12,CCTCAAGC,-0.0831
13,GTGGACTA,0.319
14,GGCAGGCA,-0.336
15,CAAATAAA,0.0306
16,ACGCGCCT,0.0183
17,GTGCGGGA,-0.101
18,AAGCGGTG,-0.0536
19,AACGGCTG,-0.0314
20,AAATTGGC,-0.256
21,CCATACAC,-0.06
22,AAGCCACG,-0.192
23,AGCGCGAG,-0.00436
24,CTTAAAAG,0.182

row,Sequence,PBM E-score
1,TAATCCGA,0.205
2,CGAGATAG,-0.152
3,AAGTTAGA,-0.0136
4,ATTCGCAG,-0.0137
5,ACAAGGAG,0.132
6,ACAAGATG,0.0445
7,AAGTGCAT,-0.102
8,ACTATCTG,0.18
9,CCCTCCAA,-0.12
10,AGGCTCAT,0.0724
11,ACCAGAAA,0.0648
12,ACAGAAAT,-0.108
13,TCGAAGAA,-0.136
14,CCCAGTAA,-0.143
15,ACCTGTAA,-0.0723
16,CTTTATGC,-0.0254
17,GCGTTAAC,-0.00287
18,ACATCGAG,-0.128
19,TTGTAAAA,0.0051
20,CGGGAGGC,-0.19
21,ATTGGATC,-0.0186
22,ACTAATCC,0.208
23,TGGTACAA,-0.0525
24,GCCTGCCC,-0.343

row,Sequence,PBM E-score
1,TATTATGA,0.107
2,CTGAGTTA,0.185
3,AACCGCGG,0.0393
4,AAGCGCCT,-0.347
5,GAGGGCCC,-0.331
6,CACTTTGA,0.184
7,TAGGCATA,-0.312
8,GCATTGGC,-0.167
9,CGAATTTA,0.0489
10,GCAATGTA,-0.213
11,ACCCCTGC,-0.229
12,AGCCAACA,-0.135
13,AGAGCGAT,-0.114
14,ATCTCAGG,-0.0459
15,AGGGTGGG,-0.0646
16,ACGCGTGC,-0.0231
17,ACCAAAGC,-0.135
18,ATGATTTG,0.299
19,CATGTTAG,0.116
20,AGCCGGCA,-0.176
21,GCACGTCA,-0.137
22,CCTACAAC,-0.134
